According to the supplement of paper PMC12632987:
In all, about 1,800 sequences were measured (“median log2 fold change of GCK-ALFA target abundance (FLAG IP / Myc IP barcode read proportion)”: median about 0.14, lowest 2% from about -0.84 on). The list shows a part of the results.

B1: traf2_out_16_104_1375 (protein)
chain: SAERDEEFERIIEELERIAEEAQRLANRLMKLMEKASPEKKVEISDALVEVSRLRREALLAAQEVRERRERGGDLEEARRELERLREELERARREVEELE
B2: traf2_out_13_95_1194 (protein)
chain: EEEKRKKYKEKTNEIADKLLDFADELIDEITAATGDAALGAELRTVLNRYGVRALVHYIREQAKKNPEHKALFEEAAEKLEEKIREAGREVAREEKKIEE
B3: traf2_out_20_3_2059 (protein)
chain: SELEKKIEELTKKLKEKLKELEKLLPPEEAAELRAAWKEVEEAAKKGLEEYLIAVSRLRRLLLRLAEEAEARGDAETAALLREAADLAGKIANLVYKKIE
B4: traf2_out_1_158_913 (protein)
chain: DTKKSLMLSVVELVVRDAVESAREAGREETAAALEELGREIIELVRRLLVEEGKSVEEVIAAIDELAARAIARADPETAAAIERLRRQVITGLRQVDKLM
B5: traf2_out_11_169_864 (protein)
chain: KEKEFNRKLIDFALEVEDEAKKKLEEFALKLAKEEGLDVEEVKAIFEKNKNKSLSAIASALIKYFESKGKKDAAKKILEKHDELKEEINKKVSEKIKELK
B6: traf2_out_18_167_1853 (protein)
chain: EEEKRKKREELMDRLVDLSEVKRAARALIQALRTDPAQAPAALAALEAAAAKVPELQPLVAAIRAALAAGDREGALAALEALIAEAQRLANEAMEEYEKS
B7: traf2_out_1_27_991 (protein)
chain: SDKEIAERIKEASRKMANSSLEEKLKIARELIRELAEVGKGDARTAAVILVSTMKTEEEFEALLEEIERTFRELGWSEEEIAEIRRQMRTMWELLKKALA
B8: traf2_out_14_149_1238 (protein)
chain: SHMAELFKAAAELAEKAAKALKEVVKLLKAGKVEEAKKLLEETIKYLKEEGEKHGISISIIYVLEHIVELLDKDVEAAKKAAEAAEKRAKDRAEAYKSLA
B9: traf2_out_5_63_2354 (protein)
chain: SEREELTELARRADRLALAALEAAEAGDEAEAEALLAEALEDPELARLVIGILRGLARYYELRGDRPERAALARRLADRLEAALEERERAERAAAEEAAR
B10: traf2_out_8_15_2556 (protein)
chain: SLEEAAKKDLEKLKAHSDGDLESFANAALGFARAEVRYAKILLEEGKKELALNTLKYARALIKKTLEYAKKEGLPNLEEVEKEAKKLLEEIEKIEKEIKE
B11: traf2_out_20_3_2113 (protein)
chain: EELEEKLKKALKEAKKLLKEAAKLADKETAKVLKELAKELEKSEKLSPVDRLVVVSEIKRKVRLLAQEAKKKGDKELAAVLEKAADALNKAANLLMKIIE
B12: traf2_out_17_162_1644 (protein)
chain: SELEEQIEELERRLEELEERVERLEELTKTIETYSEEELSDLIVEASEVKREALELLQEIESLKDKLSPERYEELSSRAEEIIERAQRVAQRFYDARLAK
B13: traf2_out_13_95_1057 (protein)
chain: SLELARRIMELADRAEEEVDAALDEAKARLADDPAAVAVLDEARRAARTRGINEAIHILREAKAADPAHAAEFTELIERLEAIKRETGREVARLIREEQE
B14: traf2_out_11_169_798 (protein)
chain: KEKEKNRKINDKALELNDEAKEELLKHAKELAKKAGLDVEEVEKIYEKNKNKSLSAVASALIKYFESKGAEEEAKAVLEKYEELKEEINKKMTEFIKELE
B15: traf2_out_11_79_925 (protein)
chain: SALSEELKEIAERLEELIERLKEAQANPETREETLAEILRELREVYNRVGQLLLKTENTDLGFVATEIRDAIRALEAGDLEEALEELEEALEEVKRILEE
B16: traf2_out_5_189_2324 (protein)
chain: SAREEEERRDRERARRLAKEASELLNKMQAAGASNEEIIDAFLEAAAKLSIEDARLFTGIAYAIWEGLALANNDEAALAAARRFRERAAALVAERRAAAA
B17: traf2_out_20_3_2152 (protein)
chain: TPLEEEAERALEEAERLLREAAELADPETAARLEELLERVRRSRELPPDERLVVLSEVRREVRALAEEARAAGREELAAVLEEAADALNRAMQLVYQLIL
B18: traf2_out_13_95_1218 (protein)
chain: SEEANEKLRKIANDMLDKVEEILEELEEKLKPYPETKEDIEKIKHALRNYGIHQAIAVLEEASKKHPEVKELFDEAIEKIKKIIKEAGKKVAEVLKEEEE
B19: traf2_out_13_95_1199 (protein)
chain: EEEKTKKIREVTNEIADKLLAFADETAAEVEARTGDAAAAARVRAALDGHGVSAAIHVLRELAAADPAHAAVYLEAAERLEEKRREAGKEVAKELKKIEE

Molecular target: T1, TRAF2, Q12933
T1 chain: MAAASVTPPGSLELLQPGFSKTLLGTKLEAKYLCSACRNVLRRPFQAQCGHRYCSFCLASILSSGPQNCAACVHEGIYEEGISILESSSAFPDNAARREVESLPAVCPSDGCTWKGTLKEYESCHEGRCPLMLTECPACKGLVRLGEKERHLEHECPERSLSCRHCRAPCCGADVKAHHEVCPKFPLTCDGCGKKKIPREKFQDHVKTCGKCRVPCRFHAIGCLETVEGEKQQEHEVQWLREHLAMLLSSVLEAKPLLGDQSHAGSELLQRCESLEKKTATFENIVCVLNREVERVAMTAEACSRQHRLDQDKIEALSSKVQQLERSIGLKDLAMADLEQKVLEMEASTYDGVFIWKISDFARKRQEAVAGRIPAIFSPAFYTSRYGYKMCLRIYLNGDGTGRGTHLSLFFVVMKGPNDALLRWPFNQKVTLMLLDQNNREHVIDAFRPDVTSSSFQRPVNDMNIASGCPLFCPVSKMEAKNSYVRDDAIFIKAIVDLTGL
Assay: median log2 fold change of GCK-ALFA target abundance (FLAG IP / Myc IP barcode read proportion) (log2 ratio); each designed protein is fused to an ALFA-tag nanobody in HEK293 cells to bring the named protein to FLAG-tagged glucokinase (GCK); Myc marks an untargeted standard; higher = target protein stabilised (more abundant)
Conditions: target protein: 3xFLAG-MCP-GCK-ALFA reporter; HEK293 landing pad (RPLP)
In short: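 Binders fused to an ALFA nanobody were recombined as a library into HEK293 landing-pad cells, which were induced with 2 μg mL^−1 doxycycline and then transfected to express a FLAG-tagged target and a Myc-tagged standard. After 48 h, circular RNA barcodes recovered by anti-FLAG and anti-Myc immunoprecipitation of lysates were reverse transcribed, amplified and sequenced. Each binder's target abundance is the median log2 ratio of FLAG to Myc barcode read proportions, from barcodes present at ≥10^−7 in both replicates, binders carrying ≥3 barcodes per replicate, a 10^−6 pseudocount and pooled replicates.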

| Binder | median log2 fold change |
| --- | --- |
| B1 | 0.00548 |
| B2 | 0.156 |
| B3 | 0.304 |
| B4 | -0.0918 |
| B5 | -0.302 |
| B6 | 0.11 |
| B7 | -0.0734 |
| B8 | -0.231 |
| B9 | 0.178 |
| B10 | 0.0845 |
| B11 | -0.44 |
| B12 | 0.226 |
| B13 | -0.146 |
| B14 | -0.0687 |
| B15 | 0.415 |
| B16 | -0.0823 |
| B17 | 0.0494 |
| B18 | -0.012 |
| B19 | 0.226 |
